Laboratory results published in PMC4336329 (PLoS ONE, 2015).
The whole screen tested about 310,000 compounds, of which about 14,000 (4.5%) showed an effect of 50% or more. Effects have a minus sign here. The list shows a part of the results.

Biological target: human ether-à-go-go-related gene (hERG) potassium channel (human, UniProt Q12809)
Experiment: primary screen, population patch clamp on CHO cells stably expressing hERG
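Note: peak tail current of the secondary pulse compared with the same well before compound.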

human ether-à-go-go-related gene (hERG) potassium channel, sequence (Q12809 whole entry, looked up): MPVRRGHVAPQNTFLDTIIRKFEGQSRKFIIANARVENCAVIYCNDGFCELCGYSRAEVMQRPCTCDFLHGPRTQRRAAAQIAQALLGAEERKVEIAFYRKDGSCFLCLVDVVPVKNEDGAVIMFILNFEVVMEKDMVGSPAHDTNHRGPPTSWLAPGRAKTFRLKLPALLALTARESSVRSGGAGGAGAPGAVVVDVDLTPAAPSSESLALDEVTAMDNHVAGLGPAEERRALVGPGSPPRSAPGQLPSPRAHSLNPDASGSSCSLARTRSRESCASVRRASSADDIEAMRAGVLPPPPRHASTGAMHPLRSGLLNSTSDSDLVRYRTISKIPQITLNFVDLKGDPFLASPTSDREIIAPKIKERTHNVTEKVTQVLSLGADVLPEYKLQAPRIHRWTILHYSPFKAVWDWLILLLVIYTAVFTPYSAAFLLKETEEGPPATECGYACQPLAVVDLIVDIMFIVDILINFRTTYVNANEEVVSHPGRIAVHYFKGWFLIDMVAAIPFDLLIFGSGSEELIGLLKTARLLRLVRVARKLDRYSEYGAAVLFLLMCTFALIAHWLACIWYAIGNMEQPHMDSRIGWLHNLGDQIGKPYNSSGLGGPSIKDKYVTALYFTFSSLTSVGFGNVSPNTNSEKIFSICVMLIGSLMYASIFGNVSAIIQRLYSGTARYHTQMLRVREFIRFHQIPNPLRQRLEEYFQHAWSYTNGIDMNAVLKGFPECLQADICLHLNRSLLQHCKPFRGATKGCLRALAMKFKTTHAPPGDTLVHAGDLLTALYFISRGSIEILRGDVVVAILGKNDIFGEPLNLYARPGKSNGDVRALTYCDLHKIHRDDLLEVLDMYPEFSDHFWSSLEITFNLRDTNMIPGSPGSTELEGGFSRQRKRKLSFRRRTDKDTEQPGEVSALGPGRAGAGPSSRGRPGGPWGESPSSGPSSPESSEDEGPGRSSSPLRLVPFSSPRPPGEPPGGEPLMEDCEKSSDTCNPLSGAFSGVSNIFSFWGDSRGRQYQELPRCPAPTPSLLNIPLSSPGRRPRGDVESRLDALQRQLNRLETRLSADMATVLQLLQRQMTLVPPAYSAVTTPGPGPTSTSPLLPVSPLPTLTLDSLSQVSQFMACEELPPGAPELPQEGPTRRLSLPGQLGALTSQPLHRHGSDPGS

| Structure (SMILES) | hERG current change (%, negative = inhibition) at 10uM [%] |
| --- | --- |
| CC(=O)c1ccc(S(=O)(=O)N(C)CCCC(=O)N(C)Cc2c(F)cccc2Cl)cc1 | -19.3 |
| C=CCn1c(=O)c(C(=O)NCCNCC)c(O)c2ccccc21.Cl | 2.97 |
| O=C(CN1CCN(c2ccccc2Cl)CC1)NC1CCCc2ccccc21.O=C(O)C(=O)O (stereo not shown) | -11.9 |
| Cc1ccc(OCCC(=O)Nc2ccc(C)c(F)c2)cc1 | -50.6 |
| CCC(=O)N(Cc1cc2cc(C)c(C)cc2[nH]c1=O)C1CCCCC1 | -8.98 |
| CC1CCC(NC(=O)c2ccc(N3CCCC3=O)cc2)CC1 (stereo not shown) | -4.44 |
| CC(O)CNc1nc2ccccc2n1CC(=O)NC12CC3CC(CC(C3)C1)C2 (stereo not shown) | 4.74 |
| N/C(=N\OC(=O)c1ccccc1[N+](=O)[O-])c1ccccn1 | 27.5 |
| Nc1nc(SCC(=O)Nc2cccc(Oc3ccccc3)c2)n[nH]1 | -13.8 |
| CCC(=O)Nc1cc(-c2nc3ncccc3o2)ccc1Cl | 5.64 |
| CCOc1cc(Br)cc(/C=N/NC(=O)c2cccnc2)c1O | -7.42 |
| OCCN(Cc1ccccc1)Cc1ccc(C(F)(F)F)cc1 | -3.33 |
| N/C(=N\OC(=O)c1cccs1)c1ccccc1 | 3.32 |
| Cc1cc(-n2c(SCC(=O)Nc3ccc(F)c(F)c3)nc3n[nH]c(C)c3c2=N)ccc1Cl | 13.3 |
| O=C(NCc1cccc(Cl)c1)c1ccc(N2CC3CC(C2)c2cccc(=O)n2C3)c(NC(=O)c2cccnc2)c1 (stereo not shown) | -0.865 |
| COc1cc(OC)cc(C(=O)Nc2cccc(N3CCCC3)c2)c1 | 11.1 |
| CC(=O)Nc1cccc(C(=O)OCC(=O)NNC(=O)c2cccs2)c1 | 21.1 |
| CCOP(=O)(OCC)C(NC(=O)c1ccccc1Cl)=C(Cl)Cl | 15.4 |
| C=CCOc1ccccc1/C=N/NC(=O)Cc1ccc(C)cc1 | 8.17 |
| Cc1ccc(NC(=O)N(CCC#N)Cc2ccccc2)cc1 | -25.5 |
| CC(c1cccs1)N(Cc1ccco1)C(=S)Nc1ccccc1Cl (stereo not shown) | 12.1 |
| COc1ccc(CNC(=O)C2CCN(c3nccs3)CC2)cc1 | -31.8 |
| CCN1CCCC1CNC(=O)C(=O)NC1CC1 (stereo not shown) | 10.3 |
| Cc1cc(C(=O)Nc2ccc(N3CCOCC3)cc2)c2ccccc2n1 | -6.8 |
| COc1ccc(CCNC(=O)C(=O)NCC2CCCO2)cc1OC (stereo not shown) | 3.13 |
